In US7407752B2, “Oligonucleotide complexes for use as anti-viral therapeutics” (priority 2003, dated 2008):

System: HSV-1
Experiment: HSV-1 plaque reduction on Vero cells after incubation with TFO and ultraviolet-A radiation
Details: Example 9, 1 μM, two TFOs together, UVA 40 minutes
Procedure: Viral titers were determined by plaque counts on Vero cell monolayers.
3000 PFU/ml of HSV-1 were incubated with 1 μM TFO-3 (SEQ ID 2) at room temperature, N=5 replications per group. Viral killing (as measured by plaque-reduction) was effected by exposing the mixture to ultraviolet-A radiation for 0, 20 and 40 minutes at room temperature. HSV-1 titers were determined by plaque assay on Vero cells. The results were confirmed by a masked observer. The results were calculated as a percent of the unirradiated (0 min.) “virus only” control titers±SEM. Statistical comparisons were made between the “virus only” and “virus+TFO-3 (SEQ ID 2)” groups at each time point using an unpaired two-tailed Student's T-Test.
3000 PFU/ml of HSV-1 was incubated with 1 μM TFO-3 (SEQ ID 2) or a (scrambled) control oligonucleotide. Viral killing was affected by exposing the mixture to ultraviolet-A radiation for 40 min. Results are expressed as percent of the “virus only” control titers±SEM. […]
HSV-1 was incubated with 1 μM TFO-3 (SEQ ID 2) with and without exposure to ultraviolet-A radiation for 40 minutes at room temperature. Results are expressed as mean viral titers±standard errors. […]
HSV-1 was incubated with 1 μM of TFO-1 (SEQ ID 1) and TFO-3 (SEQ ID 2) or their scrambled control oligonucleotides. […] Results are expressed as mean viral titers ±standard error of the mean. […]

TFO-1 (SEQ ID 1) and TFO-3 (SEQ ID 2): the two anti-HSV-1 TFOs used together (chain 1 GAAGAGGGGGGGGGGAAGAAG; chain 2 GGGAGGAGGGAGGGAAGGAGGGGG; DNA, backbone not given here)
decrease in viral titers over matching controls: 10 fold
